Test results reported in publication PMC12136788.
Some of the results follow.

B1: chr3:176768308:176768309:-_ENSG00000177565_ENST00000430069|hu_hu|FALSE|FALSE (ssRNA)
RNA: GGGAGUUCUACAGUCCGACGAUCACUAAGAUUCCAUAUUCUUGCUGUUGAGUCUCCAGACCCUGAUGCUAGGAGAUCACUAACAGGGUUCCAGGCACAGAUAAAAACUUCAGAUUCAUGGCCCCGCAACACAACAGCUUUAUUCAACAGAGGAUUGAGCAUCA
B2: chr7:140404665:140404666:+_ENSG00000090266_ENST00000247866|hu_hu|hu_hu_hu_mus_False|1_58 (ssRNA)
RNA: GGGAGUUCUACAGUCCGACGAUCUGCUCCUACUCGUCCAGAGAGUUUACAGUGUCAGUCCUCGUCAUCAGGAGGGAUACCUAAUUCUUCAUCUGUCCACUGUGAAGGAUCUGGAUAUGAAAAGUGACCCAGCACAGCUUCUGACAACAGAGGAUUGAGCAUCA
B3: chr2:217001886:217001887:+_ENSG00000079246_ENST00000392132|hu_hu|FALSE|FALSE (ssRNA)
RNA: GGGAGUUCUACAGUCCGACGAUCAUGAGGAAAAGCCACGCCGACUUGAGGAUUAGCUCUUUUGUCAUAAGCAUAUCGAACUAUGGCCACCAUGUCUAAGUCAUCCAAAGCAUGAAUCAGGGAGGAAAGUGCAACUGCAGCUGCCAACAGAGGAUUGAGCAUCA
B4: 65225615_65225735_80_5pUTR_ENSMUSG00000025950_ENSMUST00000097709|mouse|control|control (ssRNA)
RNA: GGGAGUUCUACAGUCCGACGAUCUCAGCAUCUGCCACAACCUUCGCUCGGAAGCCCAGCGGCAGGGUCAAGGCUGUUUAACUCUUCCCGGCUUUGUCUCCUCCCAGGCCCCACCCCCUCAGCCCACCUCCCGAAGCCCCGCCCCAACAGAGGAUUGAGCAUCA
B5: chr3:10168198:10168199:+_ENSG00000254999_ENST00000256463|hu_mus|motif|central (ssRNA)
RNA: GGGAGUUCUACAGUCCGACGAUCCACCUCAAACACAUUGACAAGUAGUUCCGAACAAUGUUACUGAAAAGGGAAAAAGCCGGAUGCUGUUUCCAAGAGGUCCCCUGGACUGCUUGCUCCCCCAUGCCACGUCAUACCCCAGGGCAACAGAGGAUUGAGCAUCA
B6: chrX:140365796:140365797:-_ENSMUSG00000031285_ENSMUST00000033642|mus_mus|mus_mus_mus_hu_False|78_108 (ssRNA)
RNA: GGGAGUUCUACAGUCCGACGAUCCUUCUCAUUACUUAGUGCCUGCAAGGUUCUGGUUCUGUAGAAGCUACAGUGGGCGCUGUGAGUGGGGCUAGGCAACCCAUUCAUCCGGGAGCCUCGCAUGUUCCUGGAUGUCUUAUCUCUCAACAGAGGAUUGAGCAUCA
B7: chr2:156005782:156005783:-_ENSMUSG00000027620_ENSMUST00000109587|mus_hu|motif|central (ssRNA)
RNA: GGGAGUUCUACAGUCCGACGAUCGCGGAACCGCCCAGCCCGAAUAUCGGGUUCCAAGGACGGCUAGGCCCGAGAGAAUCGGAAAAAAACAAUGGAAUUAGAGAAGCCCACGCGGGAGAGCAGGACGGCGGCUUCGGCAGCUCACAACAGAGGAUUGAGCAUCA
B8: 102312815_102312935_6131_3pUTR_ENSG00000166135_ENST00000299163|human|control|control (ssRNA)
RNA: GGGAGUUCUACAGUCCGACGAUCGACAGCUCAGUUCUUCCACACCAGCUUCCCGGGCCUGACAUCAUUCUCACAAAGUCUCCUCAGCAAUCCCUGCACCUCUCCCCUCAACUGGCCCUUGUAGGUGCCCACCCCUAACCCACCCAACAGAGGAUUGAGCAUCA
B9: chr2:42543136:42543137:+_ENSG00000143924_ENST00000318522|hu_hu|motif|central (ssRNA)
RNA: GGGAGUUCUACAGUCCGACGAUCAUCUAUUGAGUAGCGCAUCACAGAGAGCUGUUCAUUCCCGUCUGUGUGGAUAGAAACGGGAUCUCUGGUUUCUGCAUCCAGAACAAACCACCUGCCUGAGUGCGUUCCUAUGGCCACCACCAACAGAGGAUUGAGCAUCA
B10: chr9:107926503:107926504:+_ENSMUSG00000032594_ENSMUST00000035214|mus_mus|motif|central (ssRNA)
RNA: GGGAGUUCUACAGUCCGACGAUCGGGGGCCGGUUGCACACUGAUGGCAGACGAUGCAGCACAUGGACCACAAAAGGAGAGCGGAGUUGAUCCUGGCUAGUGGGAGGCCAAUGGUCACAGUCUGCUUAGUUUACUGUUCUGUCCCAACAGAGGAUUGAGCAUCA
B11: chrX:35777509:35777510:-_ENSMUSG00000016534_ENSMUST00000061755|mus_mus|motif|central (ssRNA)
RNA: GGGAGUUCUACAGUCCGACGAUCCUGUCCUUUUGUCACAUUAAAAGGUUGCACCUUUAGGUUAAAGGUGUUGAUCUGAAACGCUCGGGACACAGAAAGCACCUGCUCUUUGUUGCACAUAUAAGAACUUCCCAGAGGGGCAUCCAACAGAGGAUUGAGCAUCA
B12: 48279288_48279408_581_CDS_ENSMUSG00000038143_ENSMUST00000110367|mouse|control|control (ssRNA)
RNA: GGGAGUUCUACAGUCCGACGAUCCCUCUCGUCCAAGUGGUACCACUUACUGUUAGUUCUUAUGAGGGAGGGAGUAAUGAAAUAAGUCUGUGGGGUCACAAUGAAAUAGCCAUCCGGAGUCGGAUAGAUUUUCCUCUCCCGUACCAACAGAGGAUUGAGCAUCA
B13: chr6:41757443:41757444:+_ENSG00000214736_ENST00000398881|hu_mus|hu_hu_hu_mus_False|38_48 (ssRNA)
RNA: GGGAGUUCUACAGUCCGACGAUCGAACCGUGCAGAGGCAACAUCUCAGCCGACACUGGGGGAUGGGGGGGCAGUGGGGGGGGGUUCAGGGAAGGGGAAGAAAAGUGCUUCAGCUGCCACUCAGGUAGGAUCUUGUGGUCACAGCAACAGAGGAUUGAGCAUCA
B14: 43591265_43591385_420_5pUTR_ENSMUSG00000028467_ENSMUST00000030189|mouse|control|control (ssRNA)
RNA: GGGAGUUCUACAGUCCGACGAUCUCUGACAGGUUUCUGACGUUUCAAAACGCUGAUGCCAGUUGCAGUUAGGUGCAGUCCGGGAGGGCCCGAUGCUGGGGAAAGCCGUGGGACGUUGGUAUCUGGGUAAAGUCAGAGAGCUCCCAACAGAGGAUUGAGCAUCA
B15: chr16:20405944:20405945:-_ENSMUSG00000022822_ENSMUST00000134962|mus_hu|FALSE|FALSE (ssRNA)
RNA: GGGAGUUCUACAGUCCGACGAUCAUGCAUGGAGGCAUCAAGAGAGAGGCCCUCGGCUCGGGCUGCUGUUUCCAAGGCAUCUUGGCAUUCCAACGGUCGAGUUCUCCUGAACUUGGAAUCUUCACGGUCUCUGUGCGUCCCAGACAACAGAGGAUUGAGCAUCA
B16: chr1:36394379:36394380:+_ENSG00000092847_ENST00000373204|hu_hu|motif|central (ssRNA)
RNA: GGGAGUUCUACAGUCCGACGAUCCAGGAGCCAUCAAAUACCCAGUGCAAAAUUUCCUAAAAUAUGAUACAAAAGUAUAAACGGGAACAGAAAAAAGCAACAAACGGAGCUUUAAUAAAUUCACAAAAUUUUAAACUUUUGCUCCAACAGAGGAUUGAGCAUCA
B17: chr21:27062186:27062187:+_ENSG00000154721_ENST00000480456|hu_hu|motif|central (ssRNA)
RNA: GGGAGUUCUACAGUCCGACGAUCACCCAGUUUCUUCCACUCUAAUCUGGAGGAAACAGUCUUCUUUGGGGUUUUGCAGGCGGAAAUAGCCUCUUGGUACUCUACUGCUGUGACUACUUGUUGGUCUUUUGGGGCAGAAAACCCCAACAGAGGAUUGAGCAUCA
B18: chrX:100910778:100910779:-_ENSG00000184867_ENST00000356824|hu_mus|FALSE|FALSE (ssRNA)
RNA: GGGAGUUCUACAGUCCGACGAUCCACACACACCCCAGAUGUAGUGCAUAAGUAAAACAGGGACCCCUUGUUGAAUUCCCUGUAGUUGAACACUUCUGCUCUGAGGUUGUCGAAGAUAAUCUCAAAUAGAGUAAGGGCAUUAAUCAACAGAGGAUUGAGCAUCA
B19: 26795299_26795419_4046_CDS_ENSMUSG00000024921_ENSMUST00000025862|mouse|control|control (ssRNA)
RNA: GGGAGUUCUACAGUCCGACGAUCGGUGAGGGCAUCACUGUAGUCCACAUCCCGGCGCUGGCGAGAGCCCCUCCCAAAUAUCUUCUCCUCCUCUUCUUCACAGGUGAGCCUUUCCACUUCGGCGUCAUCCUUGAUAAUCCAGGACAACAGAGGAUUGAGCAUCA
B20: chr4:73765705:73765706:+_ENSMUSG00000049122_ENSMUST00000084474|mus_hu|motif|central (ssRNA)
RNA: GGGAGUUCUACAGUCCGACGAUCGUAUCUUGUGAGCUCUUCUUUAAUCUUCAAGGGUUCAUGUGGGUAGAAUUUCACUCGGAAGCACAUGGUGUAUGGUGGAUGAGUUUUCAUUUGCUUGAAGAUGGACUUGUUAGGUUCAAGCAACAGAGGAUUGAGCAUCA
B21: chr3:176767854:176767855:-_ENSG00000177565_ENST00000430069|hu_hu|hu_hu_hu_mus_False|28_38 (ssRNA)
RNA: GGGAGUUCUACAGUCCGACGAUCGACAUCCUUGUUACUGGGCACGUCCUGCCCUCCUUCCCGUAUGCAGUGUCUAAGCACGAGCUGCGUAGGGCCACUGGUGCUGUUCUCACUAAGGUUCCAGAUUCUUGCCGUGGAGUCUCCCAACAGAGGAUUGAGCAUCA
B22: 129107762_129114878_705_CDS_ENSMUSG00000034951_ENSMUST00000057576|mouse|control|control (ssRNA)
RNA: GGGAGUUCUACAGUCCGACGAUCUUCAGUAAACACCUUCACAAACACUUUAGACUGAUCCACAGACUGAGAGGUGAACGAUGCUACGAUCUGGGGGCUGGCCAGGGCCUCCAGUCUGUUCUUCAGAGCCUCCAGGUGCACACACAACAGAGGAUUGAGCAUCA

Each binder was assayed against T1, UNK ZnF1-3 (human, UniProt Q9C0B0 31-174) (assay: nsRBNS (natural sequence RNA bind-n-seq); RBNS binding buffer (assumed for nsRBNS): 25 mM Tris pH 7.5, 150 mM KCl, 3 mM MgCl2, 0.01% Triton X-100, 500 ug/ml BSA, 20 U/ml SUPERase-In, 4 C; UNK is unkempt and MSI1 is Musashi-1; names of the RNAs are library labels; protein concentration not given here; high values mean tight binding).
T1 sequence: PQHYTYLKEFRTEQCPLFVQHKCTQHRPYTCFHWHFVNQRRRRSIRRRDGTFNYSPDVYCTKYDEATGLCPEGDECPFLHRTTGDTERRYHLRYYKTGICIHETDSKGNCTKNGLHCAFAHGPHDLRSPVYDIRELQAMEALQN

Binder | binding signal [enrichment R]
B1 | 0.994
B2 | 1.08
B3 | 1.82
B4 | 1.25
B5 | 1.23
B6 | 0.538
B7 | 1.33
B8 | 1.51
B9 | 0.989
B10 | 1.54
B11 | 1.38
B12 | 2.81
B13 | 1.49
B14 | 1.04
B15 | 1.16
B16 | 3.04
B17 | 0.579
B18 | 0.567
B19 | 1.36
B20 | 0.719
B21 | 0.546
B22 | 1.08
